# ± gives the standard deviation of the averaged measurements. The full ranking holds about 33,000 sequences; the median of “E-score (dimensionless, -0.5 to 0.5)” is about -0.046, and the highest 2% start at about 0.36. Some of the results follow.
# Test system: T1, SpTbr T-box DNA-binding domain (GST fusion)
# T1 sequence: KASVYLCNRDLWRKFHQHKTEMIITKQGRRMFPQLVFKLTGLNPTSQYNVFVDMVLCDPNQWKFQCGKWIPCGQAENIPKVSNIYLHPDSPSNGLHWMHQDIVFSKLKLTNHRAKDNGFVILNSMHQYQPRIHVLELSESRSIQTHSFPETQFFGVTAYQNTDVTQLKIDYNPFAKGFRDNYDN
# Assay: PBM E-score of 8-mer (E-score (dimensionless, -0.5 to 0.5)); Tbr is Tbrain of the sea star Patiria miniata (Pm) or the sea urchin Strongylocentrotus purpuratus (Sp); higher = stronger binding preference; most listed sequences are background and not binding sites
# Conditions: the construct has about 5 more residues each side
# Outline: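 Primer extension turned Universal Agilent oligonucleotide arrays double-stranded. They were incubated with 200 nM protein in PBS (pH 7.5); the protein was a GST-fused Tbr T-box DNA-binding domain expressed in BL21 E. coli at 20 °C and purified on glutathione. Every ungapped 8-mer was scored from the scanned, quantified probe intensities, and the Universal PBM Analysis Suite gave each an enrichment E-score averaged over duplicate arrays.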
row,Sequence,PBM E-score of 8-mer
1,AACCTTGC,0.00568 ± 0.0057
2,CTTTCAAC,-0.0325 ± 0.08
3,GTCGTCCA,0.031 ± 0.034
4,ACATATGA,0.00819 ± 0.073
5,CGGACTCC,-0.284 ± 0.11
6,AGGGTTAG,-0.081 ± 0.019
7,AAGACCGG,-0.189 ± 0.056
8,CACGTCTG,0.268 ± 0.035
9,CAGCTAGG,0.101 ± 0.087
10,ACGTCACA,0.276 ± 0.012
11,CGATATAG,-0.0337 ± 0.026
12,CGGTGAAC,0.0226 ± 0.027
13,GGGCGACC,-0.122 ± 0.055
14,GCGGAACA,-0.0407 ± 0.0032
15,AAATACAC,0.0823 ± 0.03
16,CAACTGCA,-0.0857 ± 0.016
17,CTTTGTTA,0.0827 ± 0.039
18,CACGCTCG,0.225 ± 0.031
19,AGCGCCCC,0.149 ± 0.0046
20,ACCCGTCA,0.318 ± 0.013
21,AGTGCAAA,0.304 ± 0.058
22,ATTATGAC,-0.0939 ± 0.058
23,CGGGACCC,-0.304 ± 0.0023
24,CTTGAGGA,-0.241 ± 0.022
25,AATGGGAC,-0.00757 ± 0.023

row,Sequence,PBM E-score of 8-mer
1,CACGATCG,0.117 ± 0.061
2,GTGAGCAC,0.211 ± 0.045
3,CAGGTGCA,0.265 ± 0.028
4,CAACATAA,0.0107 ± 0.073
5,CAAATCGG,-0.0523 ± 0.043
6,AGTGGGTG,0.236 ± 0.038
7,AACCCTGG,0.0248 ± 0.023
8,CCTTGACA,0.24 ± 0.035
9,CTTTTTGA,0.184 ± 0.057
10,ACATATCT,0.0956 ± 0.0092
11,ACTTAGCC,-0.056 ± 0.0053
12,CGCTGTTA,0.0348 ± 0.018
13,AATGTGTG,0.4245 ± 0.0035
14,GTGTCGAA,0.349 ± 0.0077
15,AACAAAGG,-0.0402 ± 0.053
16,CCGACTTA,0.0269 ± 0.13
17,CCACCACA,0.131 ± 0.073
18,AGAGTCAG,-0.372 ± 0.056
19,ATTGTGTA,0.122 ± 0.027
20,AGCAGGAG,-0.218 ± 0.0031
21,AACCTAAA,0.0109 ± 0.031
22,AGATGATA,-0.078 ± 0.14
23,CACACTTC,0.4456 ± 0.0039
24,CATTGCCG,0.0537 ± 0.1
25,AGTAGACA,-0.0292 ± 0.034

row,Sequence,PBM E-score of 8-mer
1,CCCGTCAA,0.202 ± 0.034
2,AGGTACGA,-0.0328 ± 0.12
3,GAAGCCAC,-0.085 ± 0.12
4,AAACAGCT,0.0803 ± 0.013
5,GAAGCAGA,-0.06 ± 0.00081
6,GATGAATA,-0.0772 ± 0.011
7,CATGAGTC,-0.08024 ± 0.00076
8,TAGAGCCA,0.0709 ± 0.015
9,AATGAATC,-0.246 ± 0.019
10,CACTTCTG,0.309 ± 0.011
11,CATTTTTA,-0.178 ± 0.051
12,AGCTGCTA,0.124 ± 0.035
13,CACTAATC,0.12 ± 0.017
14,GCTACGAC,0.0563 ± 0.026
15,AACGACTC,-0.0378 ± 0.041
16,CAGCGCGC,0.0347 ± 0.044
17,ACCGGCAG,0.0149 ± 0.061
18,CTGGAAAC,-0.205 ± 0.064
19,GCTACACA,0.0072 ± 0.014
20,CTACATTC,-0.286 ± 0.017
21,GGAAAACC,0.00278 ± 0.019
22,GCCCGTCA,-0.0389 ± 0.012
23,CTATTCCC,-0.215 ± 0.049
24,ATTGGGAA,-0.0416 ± 0.0068
25,TGCTTTAA,-0.0209 ± 0.029

row,Sequence,PBM E-score of 8-mer
1,GACGTTCA,-0.000445 ± 0.014
2,GCGGCCCA,-0.3 ± 0.021
3,CCCTTACA,0.0713 ± 0.043
4,CCGAGTGC,-0.00521 ± 0.009
5,AATCCTGA,-0.0918 ± 0.0086
6,CATGTTCA,-0.0155 ± 0.047
7,ATTAGTAA,-0.227 ± 0.081
8,ATCGTTCG,0.122 ± 0.018
9,GAGCCCTA,-0.23 ± 0.011
10,CACGAATC,0.0953 ± 0.041
11,CGTATACA,-0.074 ± 0.0067
12,CATCCATC,-0.232 ± 0.06
13,GCGTCGAC,0.114 ± 0.082
14,GTTCTTGA,-0.146 ± 0.062
15,GGCCAAAA,-0.169 ± 0.019
16,AGATGCGG,-0.0902 ± 0.005
17,CACCATAG,0.176 ± 0.031
18,CATAACAC,0.405 ± 0.028
19,CCAACCTA,-0.218 ± 0.044
20,CATGCAAA,-0.213 ± 0.019
21,CATCTCAG,-0.117 ± 0.059
22,ACGACACC,0.419 ± 0.02
23,CAGCTGCG,0.123 ± 0.084
24,ACCGTAGA,-0.214 ± 0.048
25,AACCACCG,-0.212 ± 0.011

row,Sequence,PBM E-score of 8-mer
1,ACGCGGAA,-0.138 ± 0.009
2,CTATCGAA,-0.142 ± 0.098
3,GTACTTCA,-0.119 ± 0.025
4,AGCACTCA,0.079 ± 0.03
5,GACATTTA,-0.262 ± 0.0052
6,CATCATCA,0.103 ± 0.073
7,AAGGGCGG,-0.201 ± 0.031
8,CGTACACG,-0.0119 ± 0.045
9,CGTTGGAC,-0.0488 ± 0.1
10,AAAGAAGA,-0.132 ± 0.013
11,ACGGTGGC,0.126 ± 0.087
12,CCGGTATC,-0.0899 ± 0.063
13,AACGCAGG,-0.195 ± 0.075
14,ACCCGGTG,0.0464 ± 0.016
15,CAAATGGC,-0.179 ± 0.045
16,ACGATGAA,-0.2 ± 0.057
17,CGACGAAA,0.218 ± 0.0064
18,CGGTCTGC,-0.0345 ± 0.046
19,AATTCCAT,-0.0076 ± 0.035
20,ATTGTCCC,-0.129 ± 0.0043
21,GATAACCC,0.0355 ± 0.017
22,GACTTGGA,-0.167 ± 0.016
23,CTGAGGAA,-0.0516 ± 0.024
24,CTGCTATC,-0.0252 ± 0.0065
25,GGTCTTGA,-0.15 ± 0.037

row,Sequence,PBM E-score of 8-mer
1,AGGGTTAA,-0.126 ± 0.041
2,AATTCGGG,-0.213 ± 0.043
3,AAAGCCAG,-0.154 ± 0.021
4,AAAACGCA,-0.16 ± 0.07
5,ACATTTGC,0.00351 ± 0.022
6,ACAGAATG,0.00951 ± 0.021
7,ACAACCCG,0.159 ± 0.0093
8,GGCCGCTA,-0.0198 ± 0.018
9,ATAGTATC,-0.124 ± 0.037
10,AATGGACC,-0.2776 ± 0.0022
11,AGCAAGTA,-0.0132 ± 0.07
12,ACCTGATG,0.0514 ± 0.019
13,CATGACAA,0.224 ± 0.0033
14,GAGAATAC,-0.0812 ± 0.016
15,CCGCATGA,-0.203 ± 0.023
16,CCCCGTCC,-0.203 ± 0.015
17,AAGCCGCG,0.0748 ± 0.058
18,CAGCCAGG,-0.0906 ± 0.022
19,ACGCCATA,-0.0851 ± 0.0062
20,CCTCTAGC,0.169 ± 0.061
21,ATACCCAT,-0.206 ± 0.0075
22,CTTTGTAC,-0.111 ± 0.036
23,AACACGTG,0.36 ± 0.008
24,ACTGCCAG,-0.133 ± 0.072
25,GGTCTTAA,-0.0355 ± 0.054

row,Sequence,PBM E-score of 8-mer
1,CTAGGCCA,-0.041 ± 0.032
2,TCTTGAAA,-0.00537 ± 0.069
3,TGACTTAA,0.021 ± 0.066
4,ACACAAGC,0.103 ± 0.03
5,ACACTACT,0.0839 ± 0.024
6,CGAATCCC,-0.0359 ± 0.1
7,AAATTCAA,-0.0949 ± 0.042
8,CATCCTAA,-0.185 ± 0.033
9,AGTGCCTA,0.0376 ± 0.0082
10,ACTGCGAG,0.17 ± 0.033
11,AATTTGGG,-0.194 ± 0.017
12,ATCCCAAT,-0.172 ± 0.042
13,AGAGCGCA,-0.0186 ± 0.032
14,AACTCGAC,0.195 ± 0.031
15,AAGAGGGT,-0.096 ± 0.028
16,AGTCAATC,-0.203 ± 0.025
17,CTAGCATC,-0.0594 ± 0.067
18,ACAACTGT,0.216 ± 0.025
19,CGGGACGC,-0.0224 ± 0.019
20,AAGAGCTC,-0.165 ± 0.046
21,ACCCGATC,0.0864 ± 0.06
22,AAGTGCAG,0.206 ± 0.011
23,CACCTAGG,0.392 ± 0.012
24,CTCTCTAA,-0.0322 ± 0.062
25,ATCTCCTA,-0.238 ± 0.029

row,Sequence,PBM E-score of 8-mer
1,CTGAGCCC,-0.253 ± 0.044
2,ACTACACC,0.282 ± 0.028
3,AGGTCTCC,-0.241 ± 0.045
4,CAATAGAA,-0.0248 ± 0.1
5,ACGTGCAC,0.00032 ± 0.1
6,GCCTGAGC,-0.136 ± 0.013
7,ACTACGGG,-0.31 ± 0.036
8,GTGGCAAA,0.309 ± 0.024
9,ATGGGGGG,-0.172 ± 0.0088
10,GAGCATTA,-0.0462 ± 0.063
11,AGGAACGC,-0.0105 ± 0.016
12,CTTTCGGA,-0.063 ± 0.024
13,AACTTTAG,-0.19299 ± 7.1e-06
14,AATACACG,0.00776 ± 0.0082
15,AGCCCTCC,-0.206 ± 0.055
16,CGAGGCGA,0.211 ± 0.034
17,AGGCGGAC,-0.166 ± 0.018
18,CGACATGC,0.0671 ± 0.079
19,AGTTACGA,-0.134 ± 0.01
20,GCTGAAGC,-0.146 ± 0.0035
21,CTCTCTTC,-0.223 ± 0.042
22,AAGCTCAA,-0.121 ± 0.027
23,GATATTAA,-0.113 ± 0.063
24,AGCGAGCG,0.154 ± 0.098
25,GATCTTAC,-0.204 ± 0.018

row,Sequence,PBM E-score of 8-mer
1,GACACGTC,0.333 ± 0.0087
2,CTTCAAGA,-0.314 ± 0.059
3,AGGCTTCG,-0.107 ± 0.099
4,ACGCTCCG,-0.0654 ± 0.0084
5,GATCTTAA,0.00541 ± 0.01
6,GCACGCGC,0.216 ± 0.095
7,ACGAGATC,0.0815 ± 0.024
8,ACTGGGCT,-0.25 ± 0.058
9,AGTAATTG,-0.134 ± 0.022
10,GTTAAGGA,-0.00874 ± 0.063
11,CTTGCCTA,-0.0392 ± 0.028
12,AGACTGAC,-0.154 ± 0.051
13,ATGTATAG,-0.168 ± 0.055
14,CACCGGCA,0.098 ± 0.047
15,CTGCGTCA,0.0398 ± 0.00065
16,AGTTCGTC,-0.0931 ± 0.018
17,ATTGCCTA,-0.174 ± 0.062
18,CGCGTCCC,0.0857 ± 0.045
19,CTTTGTGA,0.0945 ± 0.074
